Data reported in publication PMC4450054.
Results are given in words; binding and its absence hold for the method and conditions named. Binding seen in cells or lysates may run through a third protein. Some results given as binding are weak or reduced against the parent protein; the word gives no strength.

Key:
Assay in all cases: split reporter; BiFC in agroinfiltrated Nicotiana benthamiana leaf cells; one protein fused to YFPct, the other to YFPnt; fluorescence seen 72 h after inoculation; reciprocal assays gave the same results; YFPct construct with empty YFPnt gave no signal
[1] = molecular target: T1, HUA1 (Arabidopsis thaliana) (UniProt Q941Q3)
T1 sequence: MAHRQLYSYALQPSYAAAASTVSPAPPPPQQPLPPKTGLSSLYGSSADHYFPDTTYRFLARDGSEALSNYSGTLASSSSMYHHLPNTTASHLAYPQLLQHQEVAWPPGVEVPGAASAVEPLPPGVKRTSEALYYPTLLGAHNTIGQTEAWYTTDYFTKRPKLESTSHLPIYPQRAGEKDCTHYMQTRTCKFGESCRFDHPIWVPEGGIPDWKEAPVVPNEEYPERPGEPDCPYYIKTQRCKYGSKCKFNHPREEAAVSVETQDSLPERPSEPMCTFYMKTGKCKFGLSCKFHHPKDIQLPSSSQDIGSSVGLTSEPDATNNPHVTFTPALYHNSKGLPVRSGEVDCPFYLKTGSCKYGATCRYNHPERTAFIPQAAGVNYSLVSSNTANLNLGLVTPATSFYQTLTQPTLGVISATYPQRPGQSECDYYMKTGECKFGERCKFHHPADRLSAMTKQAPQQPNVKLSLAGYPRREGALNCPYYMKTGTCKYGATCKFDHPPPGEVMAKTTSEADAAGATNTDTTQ

[2] = molecular target: FLOWERING LOCUS WITH KH DOMAINS (FLK) (Arabidopsis thaliana) (UniProt Q9SR13)
[3] = molecular target: T2, PEPPER (PEP) (Arabidopsis thaliana) (UniProt Q9SZH4)
T2 sequence: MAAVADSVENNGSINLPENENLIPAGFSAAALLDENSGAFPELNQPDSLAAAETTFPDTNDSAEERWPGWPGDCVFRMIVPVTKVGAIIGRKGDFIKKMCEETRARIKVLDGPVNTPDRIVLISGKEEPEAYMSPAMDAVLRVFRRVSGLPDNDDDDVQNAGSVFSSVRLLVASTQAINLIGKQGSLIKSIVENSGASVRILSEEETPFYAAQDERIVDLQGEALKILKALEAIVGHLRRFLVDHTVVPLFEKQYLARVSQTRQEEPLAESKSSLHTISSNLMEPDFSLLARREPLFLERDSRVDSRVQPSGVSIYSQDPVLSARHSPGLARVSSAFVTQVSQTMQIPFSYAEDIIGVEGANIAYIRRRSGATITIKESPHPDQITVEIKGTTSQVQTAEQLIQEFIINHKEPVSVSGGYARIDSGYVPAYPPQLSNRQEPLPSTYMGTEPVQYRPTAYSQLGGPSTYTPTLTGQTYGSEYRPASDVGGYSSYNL

[4] = molecular target: T3, HUA ENHANCER 4 (HEN4) (Arabidopsis thaliana) (UniProt F4KDN0)
T3 sequence: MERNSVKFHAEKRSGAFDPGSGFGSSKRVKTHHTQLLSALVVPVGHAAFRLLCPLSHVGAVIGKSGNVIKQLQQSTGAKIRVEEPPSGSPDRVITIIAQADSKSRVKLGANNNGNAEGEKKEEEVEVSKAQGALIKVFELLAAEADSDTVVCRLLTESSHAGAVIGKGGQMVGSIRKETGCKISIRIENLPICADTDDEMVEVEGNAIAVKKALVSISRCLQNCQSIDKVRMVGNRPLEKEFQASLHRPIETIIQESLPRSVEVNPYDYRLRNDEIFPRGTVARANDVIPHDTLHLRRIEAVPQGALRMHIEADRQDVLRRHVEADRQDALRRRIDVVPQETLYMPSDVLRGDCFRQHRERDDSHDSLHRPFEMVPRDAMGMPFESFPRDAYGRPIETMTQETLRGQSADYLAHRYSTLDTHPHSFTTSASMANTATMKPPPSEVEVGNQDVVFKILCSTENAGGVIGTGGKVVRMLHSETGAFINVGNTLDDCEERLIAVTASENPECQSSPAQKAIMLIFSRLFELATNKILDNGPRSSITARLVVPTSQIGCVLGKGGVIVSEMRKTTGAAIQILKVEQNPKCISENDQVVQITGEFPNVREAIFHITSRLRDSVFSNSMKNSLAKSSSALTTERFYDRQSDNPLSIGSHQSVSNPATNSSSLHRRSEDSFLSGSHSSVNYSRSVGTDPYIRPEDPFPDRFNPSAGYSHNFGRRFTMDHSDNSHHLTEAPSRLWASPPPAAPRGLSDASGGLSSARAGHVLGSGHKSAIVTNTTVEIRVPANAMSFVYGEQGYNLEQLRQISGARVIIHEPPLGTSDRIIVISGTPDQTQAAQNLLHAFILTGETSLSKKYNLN

Measured: binding

B1: FLOWERING LOCUS WITH KH DOMAINS (FLK) (protein, UniProt Q9SR13 1-577)
chain: MAEAEDQQNFVAHNGDQVPDQGSDELHNGLPYQVHDETLVHQPYEVEDPILEPQQYEVPDPTLEPQQYEVPDQTLEPQQYEVDDQLEYHQYQLQDQANEDVQDHSQDDLQYQPQNQEQFQLQDEAHDQAQYQAQGDVQDHNGDEVQDKVEDEEGIPEHLESLQKSEPEEDATVGGEEKRWPGWPGETVFRMLVPAQKVGSIIGRKGDVIKKIVEETRARIKILDGPPGTTERAVMVSGKEEPESSLPPSMDGLLRVHMRIVDGLDGEASQAPPPSKVSTRLLVPASQAGSLIGKQGGTVKAIQEASACIVRVLGSEDLPVFALQDDRVVEVVGEPTSVHRALELIASHLRKFLVDRSIIPFFENQMQKPTRQMDHMPPPHQSWGPPQGHAPSVGGGGYGHNPPPYMQPPPRHDSYYPPPEMRQPPMEKQPHQGISAYGREPPMNVHVSSAPPMVAQQVTQQMQIPLSYADAVIGTSGSNISYTRRLSGATVTIQETRGVPGEMTVEVSGTGSQVQTAVQLIQNFMAEAGAPAPAQPQTVAPEQQGYNPYATHGSVYAAAPTNPPGGYATDYSSGYGY
binds: all assays above
